Screen size: about 44,000 compounds; about 340 (0.77%) were called active. Not shown: some 5% with an inconclusive outcome. Calls come from the whole dose curve; as a rule, active = well fitted inhibition curve with a large enough effect; inconclusive = small, poorly fitted or top-dose-only effect; inactive = flat fitted curve, though single readings scatter. Some of the results follow.
Assay: Acumen qHTS Assay for Inhibitors of the mTORC1 Signaling Pathway in MEF (Tsc2-/-, p53-/-) Cells: Sytravon;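 note: plate controls were DMSO for no effect and rapamycin for full effect; nearly all actives have a fitted effect of over 50% in size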
Details: phospho-rpS6 immunofluorescence/PI, 24 h; series mostly up to 38.3 µM; activity change, negative = inhibition: at the top concentration
Method in brief: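 Tsc2-/-, p53-/- MEFs (empty-vector stable line) in DMEM + 10% FBS were treated with compounds 24 h at 37 degree Celsius, fixed, and immunostained for phospho-rpS6 (Alexa-488) with propidium iodide counterstain. Laser-scanning cytometry gave % positive cells, normalized against 7.5 nM rapamycin and DMSO.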

Activity change, negative = inhibition, inactive:
Cc1ccc(C)c(NS(=O)(=O)c2ccc3oc(=O)c4ncn(C)c4c3c2)c1 0.447%
CCn1c(=O)c2cc(C(=O)NCCc3ccc(Cl)cc3)sc2c2ccccc21 1.55%
CCn1c(=O)c2sccc2n2c(CCC(=O)Nc3ccc(C(C)C)cc3)nnc12 0.542%
COc1ccc(OCC(=O)NC(Cc2c[nH]c3ccccc23)C(=O)O)cc1 (stereo not given) 3.12%
CCc1nnc(SC(CC)C(=O)Nc2cc(C)ccc2C)c2cc3occc3n12 (stereo not given) -16%
COc1cc(C2c3c(oc4ccccc4c3=O)C(=O)N2Cc2ccc(C)cc2)ccc1O (stereo not given) -1.09%
CC1CCN(CCCNC(=O)CN2C(=O)CSc3ccc(S(=O)(=O)N4CCOCC4)cc32)CC1 4.64%
COc1ccc(NC(=O)c2cc3c(=O)n(Cc4cccnc4)ccc3nc2C)c(OC)c1 -2.59%
Cc1ccc2nc3c(cc(C(=O)NCc4ccco4)c(=N)n3C(C)C)c(=O)n2c1 2.1%
Cc1ccc(NC(=O)c2c(C)oc3ncn(CC(C)C)c(=O)c23)nc1 5.5%
O=C(Nc1ccc(N2CCOCC2)c(C(=O)O)c1)c1ccc(Br)cc1 -9.26%
Cc1ccc(CNC(=O)Cn2ccn(-c3ccc(F)cc3)c(=O)c2=O)cc1 4.19%
CC(NC(=O)CSc1nc(-c2ccccc2F)nc2cc(=O)[nH]n12)c1nc2ccccc2n1C (stereo not given) 0%
Cc1cccc(CN2C(=O)c3ccccc3S(=O)(=O)c3ccc(C(=O)NC4CCCCC4)cc32)c1 -22%
COc1ccc(OCc2ccc(-c3nc(C#N)c(NCc4cccnc4)o3)o2)cc1 -10.1%
CCCC(=O)Nc1ccccc1C(=O)OCc1cc(=O)n2nc(C(C)C)sc2n1 -17.8%
Cc1cccc2c(=O)cc(CSc3ccccc3NC(=O)C(C)(C)C)[nH]c12 0%
CCC(=O)N1CCCc2cc(S(=O)(=O)N3CCC(C(=O)Nc4ccc(C#N)cc4)CC3)ccc21 1.06%
CC(=O)c1cccc(NC(=O)Cn2cc(C(=O)c3cccc(Cl)c3)c(=O)c3ccc(C)nc32)c1 -3.05%
COc1ccc(OC)c(S(=O)(=O)N2CCN(Cc3nc4ccc(C)cc4o3)CC2)c1 10.2%
CCN(C(=O)Cn1c(=O)n(Cc2ccc3c(c2)OCO3)c(=O)c2ccc(C(=O)NC3CCCCC3)cc21)c1cccc(C)c1 1.52%
Cc1cc(C)cc(NC(=O)N2CCN(C(=O)c3nsc4ccccc34)CC2)c1 8.68%
COC(=O)c1ccc(-n2c(/C=C/c3cc(OC)c(OC)c(OC)c3)nc3cc(Cl)ccc3c2=O)cc1 11.5%
CC(=O)Nc1ccc(NC(=O)C(NS(=O)(=O)c2ccc(Br)s2)c2ccccc2)cc1 (stereo not given) -13%
Cc1ccc(CNC(=O)CCc2nc3cccnc3n2Cc2ccccc2)cc1 0.935%
COc1cc(NC(=O)Cn2nnnc2-c2ccccc2F)cc(OC)c1OC 0.0067%
Cc1ccc(Cn2cc(S(=O)(=O)c3ccc(Cl)cc3)c(=O)c3cc4c(cc32)OCO4)cc1 4.2%
Cc1ccc(OCCSc2nc3ccc(NC(=O)c4ccco4)cc3s2)cc1 -9.53%
O=C1CC(=O)Nc2cc(S(=O)(=O)Nc3ccc(F)cc3Cl)ccc2N1 2.64%
CCOc1ccc2nc(N(Cc3cccnc3)C(C)=O)sc2c1 -4.05%
COc1ccc(-c2cc3ccc(O)c(CN4CCCCC4C)c3oc2=O)cc1OC (stereo not given) 3.65%
CC(=O)N1CCc2cc(S(=O)(=O)NC(Cc3ccccc3)C(=O)NCc3ccccc3Cl)ccc21 (stereo not given) 2.14%
CCCc1ccc(OC(C)c2nc(-c3ccc(-n4cccc4)cc3)no2)cc1 (stereo not given) 3.4%
O=C(CCNS(=O)(=O)c1ccc2c(c1)CCN2C(=O)C1CC1)N1CCN(c2cccc(C(F)(F)F)c2)CC1 -17.1%
CCOC(=O)C1CCN(C(=O)CSc2n[nH]c(-c3ccc(OC)cc3)n2)CC1 0.453%
COc1ccccc1N1CCN(C(=O)c2cc3c(-c4ccccc4F)nn(C)c3s2)CC1 1.42%
Cc1ccc(-n2c(=O)c3c(cnn3C)n(CC(=O)Nc3cccc(C)c3)c2=O)cc1 -0.962%
Cn1c(=O)n(C)c2cc(N3CCOCC3)c(NS(=O)(=O)c3ccc(Cl)cc3)cc21 -12.8%
Cc1cc(=O)n(Cc2c(F)cccc2Cl)c2c1c(C)nn2C -3.27%
CCOC(=O)Cn1c(CN2CCN(c3ccc(OC)cc3)CC2)nc2c1c(=O)[nH]c(=O)n2C 2.31%
COc1ccc(CCNC(=O)Cn2c(-c3ccc(F)cc3)cc(C(C)=O)c2C)cc1OC -3.32%
COc1ccc2c(c1)CC(C(=O)NCCc1ccc(S(N)(=O)=O)cc1)CO2 (stereo not given) -4.37%
Cc1ccc(C)c(OC(=O)CSc2nnc(-c3cccs3)o2)c1 0.666%
CCCC(=O)Nc1cc(-c2nnc3c4ccccc4c(C)nn23)ccc1C 2.67%
COc1cc2ccccc2cc1C(=O)N1CCN(c2nc3c(F)cc(F)cc3s2)CC1 1.1%
CCOc1ccc(CNC(=O)C2CCCN(c3nn4cc(-c5ccc(F)cc5)nc4s3)C2)cc1 (stereo not given) -0.522%
COc1ccc(N2CCN(CCCNC(=O)c3ccc4nc(Cc5ccccc5)oc4c3)CC2)cc1 -4.15%
COc1ccc(-n2c(=O)c3c(c4cc(OC)ccc4n3C)n(CC(=O)N3CCCC3)c2=O)cc1 -0.656%
CCc1ccc(NC(=O)CCCc2nnc3n(CCCOC)c(=O)c4sccc4n23)cc1 4.37%
Cc1ccc(NC(=O)C(C)Sc2nc3c(c(=O)[nH]2)CCCC3)cc1Cl (stereo not given) -0.0954%
CSc1cccc(NC(=O)CN2C(=O)CCc3cc(S(=O)(=O)N4CCCCC4)ccc32)c1 1.2%
Cc1cc(C)cc(NC(=O)c2cccc(C(=O)Nc3cc(C)cc(C)c3)c2)c1 16.4%
CCOc1ccccc1NC(=O)CSc1ccc2nc(-c3ccccc3)cn2n1 1.69%
COC(=O)c1ccccc1NC(=O)Cn1c(=O)n(CCCC(=O)NCc2ccccc2Cl)c(=O)c2ccccc21 2.37%
O=C(Cn1cnc2c(nc3n2CCCCC3)c1=O)Nc1cccc(C(F)(F)F)c1 -0.105%
O=C(COc1ccccc1Cl)N(Cc1cccc(F)c1)C1CCS(=O)(=O)C1 (stereo not given) 6.28%
CCc1cccc(CC)c1NC(=O)Cn1nnc2sc3c(c2c1=O)CCCC3 -22.5%
Cc1ccc(Cc2nc3ccccc3nc2SCC(=O)NCc2ccccc2Cl)cc1 0%
CCOC(=O)c1c(NC(=O)COc2ccc(C(C)(C)C)cc2)sc2c1CCCC2 6.18%
Cc1ccc(NC(=O)c2c(C)nn(-c3ccccc3)c2-n2cccc2)c(Cl)c1 -1.8%

— PubChem BioAssay AID493208 (National Center for Advancing Translational Sciences (NCATS), 2011)
